# Assay results taken from the supplement of paper PMC8728848.
# This is one part of the list.
# Key:
# Assay in all cases: glycan array binding signal (z-score within array); higher = stronger binding
# Details in all cases: glycan notation: IUPAC condensed, linker removed
# [1] = biological target: Neu5Ac(a2-6)Gal(b1-3)GlcNAc(b1-3)[Gal(b1-4)GlcNAc(b1-6)]Gal(b1-4)Glc
# Summary of the method: (§1)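 Glycan array data came from 3228 arrays in the Consortium for Functional Glycomics database, and only arrays with an available protein sequence were kept. Glycan names were put into IUPAC-condensed notation, and columns mapping to the same glycan were averaged. The binding signal is a within-array Z-score, averaged across arrays of one protein sequence run at different concentrations or buffers and across linkers. A negative Z-score can be read as non-binding.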
# [2] = biological target: Neu5Ac(a2-6)Gal(b1-4)Glc
# Summary of the method: as §1
# [3] = biological target: Neu5Ac(a2-6)Gal(b1-4)GlcNAc
# Summary of the method: as §1
# [4] = biological target: Neu5Ac(a2-6)Gal(b1-4)GlcNAc(b1-2)Man
# Summary of the method: as §1
# [5] = biological target: Neu5Ac(a2-6)Gal(b1-4)GlcNAc(b1-2)Man(a1-3)Man(b1-4)GlcNAc(b1-4)GlcNAc
# Summary of the method: as §1
# [6] = biological target: Neu5Ac(a2-6)Gal(b1-4)GlcNAc(b1-2)Man(a1-3)[Gal(b1-4)GlcNAc(b1-2)Man(a1-6)]Man(b1-4)GlcNAc(b1-4)GlcNAc
# Summary of the method: as §1
# [7] = biological target: Neu5Ac(a2-6)Gal(b1-4)GlcNAc(b1-2)Man(a1-3)[GlcNAc(b1-2)Man(a1-6)]Man(b1-4)GlcNAc(b1-4)GlcNAc
# Summary of the method: as §1
# [8] = biological target: Neu5Ac(a2-6)Gal(b1-4)GlcNAc(b1-2)Man(a1-3)[GlcNAc(b1-4)][Neu5Ac(a2-6)Gal(b1-4)GlcNAc(b1-2)Man(a1-6)]Man(b1-4)GlcNAc(b1-4)GlcNAc
# Summary of the method: as §1
# [9] = biological target: Neu5Ac(a2-6)Gal(b1-4)GlcNAc(b1-2)Man(a1-3)[Man(a1-6)]Man(b1-4)GlcNAc(b1-4)GlcNAc
# Summary of the method: as §1
# [10] = biological target: Neu5Ac(a2-6)Gal(b1-4)GlcNAc(b1-2)Man(a1-3)[Neu5Ac(a2-3)Gal(b1-4)GlcNAc(b1-2)Man(a1-6)]Man(b1-4)GlcNAc(b1-4)GlcNAc
# Summary of the method: as §1
# [11] = biological target: Neu5Ac(a2-6)Gal(b1-4)GlcNAc(b1-2)Man(a1-3)[Neu5Ac(a2-6)Gal(b1-4)GlcNAc(b1-2)Man(a1-6)]Man(b1-4)GlcNAc(b1-4)GlcNAc
# Summary of the method: as §1
# [12] = biological target: Neu5Ac(a2-6)Gal(b1-4)GlcNAc(b1-2)Man(a1-3)[Neu5Ac(a2-6)Gal(b1-4)GlcNAc(b1-2)Man(a1-6)]Man(b1-4)GlcNAc(b1-4)[Fuc(a1-6)]GlcNAc
# Summary of the method: as §1
# [13] = biological target: Neu5Ac(a2-6)Gal(b1-4)GlcNAc(b1-2)Man(a1-6)Man(b1-4)GlcNAc(b1-4)GlcNAc
# Summary of the method: as §1
# [14] = biological target: Neu5Ac(a2-6)Gal(b1-4)GlcNAc(b1-2)Man(a1-6)[Gal(b1-4)GlcNAc(b1-2)Man(a1-3)]Man(b1-4)GlcNAc(b1-4)GlcNAc
# Summary of the method: as §1
# [15] = biological target: Neu5Ac(a2-6)Gal(b1-4)GlcNAc(b1-2)Man(a1-6)[GlcNAc(b1-2)Man(a1-3)]Man(b1-4)GlcNAc(b1-4)GlcNAc
# Summary of the method: as §1
# [16] = biological target: Neu5Ac(a2-6)Gal(b1-4)GlcNAc(b1-2)Man(a1-6)[Man(a1-3)]Man(b1-4)GlcNAc(b1-4)GlcNAc
# Summary of the method: as §1
# [17] = biological target: Neu5Ac(a2-6)Gal(b1-4)GlcNAc(b1-2)[Neu5Ac(a2-6)Gal(b1-4)GlcNAc(b1-4)]Man(a1-3)[GlcNAc(b1-4)][Neu5Ac(a2-6)Gal(b1-4)GlcNAc(b1-2)[Neu5Ac(a2-6)Gal(b1-4)GlcNAc(b1-6)]Man(a1-6)]Man(b1-4)GlcNAc(b1-4)GlcNAc
# Summary of the method: as §1
# [18] = biological target: Neu5Ac(a2-6)Gal(b1-4)GlcNAc(b1-2)[Neu5Ac(a2-6)Gal(b1-4)GlcNAc(b1-4)]Man(a1-3)[GlcNAc(b1-4)][Neu5Ac(a2-6)Gal(b1-4)GlcNAc(b1-4)Man(a1-6)]Man(b1-4)GlcNAc(b1-4)GlcNAc
# Summary of the method: as §1
# [19] = biological target: Neu5Ac(a2-6)Gal(b1-4)GlcNAc(b1-2)[Neu5Ac(a2-6)Gal(b1-4)GlcNAc(b1-6)]Man(a1-6)[Neu5Ac(a2-6)Gal(b1-4)GlcNAc(b1-2)Man(a1-3)][GlcNAc(b1-4)]Man(b1-4)GlcNAc(b1-4)GlcNAc
# Summary of the method: as §1
# [20] = biological target: Neu5Ac(a2-6)Gal(b1-4)GlcNAc(b1-3)Gal(b1-3)GlcNAc
# Summary of the method: as §1
# [21] = biological target: Neu5Ac(a2-6)Gal(b1-4)GlcNAc(b1-3)Gal(b1-4)GlcNAc
# Summary of the method: as §1
# [22] = biological target: Neu5Ac(a2-6)Gal(b1-4)GlcNAc(b1-3)Gal(b1-4)GlcNAc(b1-2)Man(a1-3)[Neu5Ac(a2-6)Gal(b1-4)GlcNAc(b1-3)Gal(b1-4)GlcNAc(b1-2)Man(a1-6)]GalNAc
# Summary of the method: as §1
# [23] = biological target: Neu5Ac(a2-6)Gal(b1-4)GlcNAc(b1-3)Gal(b1-4)GlcNAc(b1-3)Gal(b1-4)GlcNAc
# Summary of the method: as §1
# [24] = biological target: Neu5Ac(a2-6)Gal(b1-4)GlcNAc(b1-3)Gal(b1-4)GlcNAc(b1-3)Gal(b1-4)GlcNAc(b1-2)Man(a1-3)[Neu5Ac(a2-6)Gal(b1-4)GlcNAc(b1-3)Gal(b1-4)GlcNAc(b1-3)Gal(b1-4)GlcNAc(b1-2)Man(a1-6)]GalNAc
# Summary of the method: as §1
# [25] = biological target: Neu5Ac(a2-6)Gal(b1-4)GlcNAc(b1-3)Gal(b1-4)GlcNAc(b1-3)GalNAc
# Summary of the method: as §1
# [26] = biological target: Neu5Ac(a2-6)Gal(b1-4)GlcNAc(b1-3)Gal(b1-4)GlcNAc(b1-3)[Neu5Ac(a2-6)Gal(b1-4)GlcNAc(b1-3)Gal(b1-4)GlcNAc(b1-6)]GalNAc
# Summary of the method: as §1
# [27] = biological target: Neu5Ac(a2-6)Gal(b1-4)GlcNAc(b1-3)Gal(b1-4)GlcNAc(b1-6)[Gal(b1-3)]GalNAc
# Summary of the method: as §1
# [28] = biological target: Neu5Ac(a2-6)Gal(b1-4)GlcNAc(b1-3)Gal(b1-4)[Fuc(a1-3)]GlcNAc(b1-3)Gal(b1-4)[Fuc(a1-3)]GlcNAc
# Summary of the method: as §1
# [29] = biological target: Neu5Ac(a2-6)Gal(b1-4)GlcNAc(b1-3)GalNAc
# Summary of the method: as §1
# [30] = biological target: Neu5Ac(a2-6)Gal(b1-4)GlcNAc(b1-3)[Neu5Ac(a2-6)Gal(b1-4)GlcNAc(b1-6)]GalNAc
# Summary of the method: as §1
# [31] = biological target: Neu5Ac(a2-6)Gal(b1-4)GlcNAc(b1-6)GalNAc
# Summary of the method: as §1
# [32] = biological target: Neu5Ac(a2-6)Gal(b1-4)GlcNAc(b1-6)[Gal(b1-3)GlcNAc(b1-3)]Gal(b1-4)Glc
# Summary of the method: as §1
# [33] = biological target: Neu5Ac(a2-6)Gal(b1-4)GlcNAc(b1-6)[Gal(b1-3)]GalNAc
# Summary of the method: as §1
# [34] = biological target: Neu5Ac(a2-6)Gal(b1-4)GlcNAc6S
# Summary of the method: as §1
# [35] = biological target: Neu5Ac(a2-6)GalNAc
# Summary of the method: as §1
# [36] = biological target: Neu5Ac(a2-6)GalNAc(b1-4)GlcNAc
# Summary of the method: as §1
# [37] = biological target: Neu5Ac(a2-6)GalNAc(b1-4)GlcNAc6S
# Summary of the method: as §1
# [38] = biological target: Neu5Ac(a2-6)GlcNAc(b1-4)GlcNAc
# Summary of the method: as §1
binder,measurement,setting,value
PX14375l-pdi-526-25-526 (Parabacteroides distasonis) (protein) DEEPKSTLTDVAYYKTQSQMESNVNYLYRTGAIGSYVDFGSAYIGPFASIQEELTGYFSNSYEGQEIVCRYTRELTRQQNTMQLASKMDKVWDDCYRGINVANGAIKHMPEVPMDQATADRLTAEAKFFRAFNYFYLVKTFGAVPFYTDPYELAENMELPRTETSTIYNQIESDLKDAMNVLPEATFAANGHRITKYVAAMTLTDVYMYQHKYAEAAETVRIVVNSNHKLTTNDDLAMNSAFNKLRSTDDLDEAIYAYEYDNQISPSNWLPTYAFDGDASSNGLFGTYAITQKVHGPNDRYLNIYESNDLRRQPNQFYHWTYTNPKTGKVWNSVGNAACCWYYYDEDALLTTGRGTKDWNVYRYAEALLDAAESIAQSTGVTAEAAGYLAQVKARANMEGKTAAEIASSLQSMGKQAFIEECWTERLRELPLEFKMWDMCVRTGMFPNISETTPGQVTYIPLVGAKNASGATIKESDLLWPLSVNEIQRNPSLTQNEGYSAK,glycan array binding signal (z-score),[1],-0.064
same,glycan array binding signal (z-score),[2],0.019
same,glycan array binding signal (z-score),[3],-0.098
same,glycan array binding signal (z-score),[4],-0.324
same,glycan array binding signal (z-score),[5],-0.029
same,glycan array binding signal (z-score),[6],-0.316
same,glycan array binding signal (z-score),[7],-0.177
same,glycan array binding signal (z-score),[8],-0.181
same,glycan array binding signal (z-score),[9],0.171
same,glycan array binding signal (z-score),[10],-0.142
same,glycan array binding signal (z-score),[11],-0.099
same,glycan array binding signal (z-score),[12],-0.016
same,glycan array binding signal (z-score),[13],-0.077
same,glycan array binding signal (z-score),[14],-0.406
same,glycan array binding signal (z-score),[15],-0.444
same,glycan array binding signal (z-score),[16],-0.055
same,glycan array binding signal (z-score),[17],-0.181
same,glycan array binding signal (z-score),[18],-0.155
same,glycan array binding signal (z-score),[19],-0.325
same,glycan array binding signal (z-score),[20],-0.104
same,glycan array binding signal (z-score),[21],-0.225
same,glycan array binding signal (z-score),[22],-0.238
same,glycan array binding signal (z-score),[23],-0.254
same,glycan array binding signal (z-score),[24],0.174
same,glycan array binding signal (z-score),[25],-0.239
same,glycan array binding signal (z-score),[26],0.043
same,glycan array binding signal (z-score),[27],-0.295
same,glycan array binding signal (z-score),[28],-0.096
same,glycan array binding signal (z-score),[29],-0.311
same,glycan array binding signal (z-score),[30],-0.02
same,glycan array binding signal (z-score),[31],-0.266
same,glycan array binding signal (z-score),[32],-0.32
same,glycan array binding signal (z-score),[33],0.169
same,glycan array binding signal (z-score),[34],-0.135
same,glycan array binding signal (z-score),[35],-0.089
same,glycan array binding signal (z-score),[36],-0.423
same,glycan array binding signal (z-score),[37],0.114
same,glycan array binding signal (z-score),[38],-0.478
